Measured values: the supplement of paper PMC10369915
The other results are listed elsewhere or left out. Rule as the data show it: active = 3.2 or more and inactive = the rest. Only a few entries rise above the background.

Columns and labels:
Test in all cases: enrichment score (SH2-bound / input frequency) (ratio); bacterial display of known human phosphotyrosine sites (pTyr-Var adds point mutants) read by sequencing; higher = stronger binding; tyrosines were phosphorylated by kinases first
Conditions in all cases: peptide library: pTyr-Var
SHP2 C-SH2 domain E139D = target: SHP2 C-SH2 domain E139D
[1] = target: SHP2 C-SH2 domain wild-type
SHP2 N-SH2 domain L43F = target: SHP2 N-SH2 domain L43F
SHP2 N-SH2 domain T42A = target: SHP2 N-SH2 domain T42A
SHP2 N-SH2 domain T52S = target: SHP2 N-SH2 domain T52S
[2] = target: SHP2 N-SH2 domain wild-type
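Also: displayed peptides selected on beads carrying the immobilized SH2 domain, with library peptides lacking any tyrosine serving as negative controls.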

| Binder | enrichment score (SHP2 C-SH2 domain E139D) | enrichment score [1] | enrichment score (SHP2 N-SH2 domain L43F) | enrichment score (SHP2 N-SH2 domain T42A) | enrichment score (SHP2 N-SH2 domain T52S) | enrichment score [2] |
| --- | --- | --- | --- | --- | --- | --- |
| MAFDRYVAICS [OR8D4_Y123_C120Y_YF] | inactive: 1.04 | inactive: 0.884 | inactive: 0.701 | inactive: 0.646 | inactive: 0.97 | inactive: 0.767 |
| CSPLLYRVIMS [OR8D4_Y132] | inactive: 0.796 | inactive: 0.87 | inactive: 0.64 | inactive: 0.654 | inactive: 0.767 | inactive: 0.934 |
| MAHDRYAAICS [OR8H2_Y123] | inactive: 0.81 | inactive: 0.622 | inactive: 0.646 | inactive: 0.692 | inactive: 0.555 | inactive: 0.436 |
| MAYDRYAAICS [OR8H2_Y123_H120Y] | inactive: 0.664 | inactive: 1.12 | inactive: 0.746 | inactive: 0.627 | inactive: 0.745 | inactive: 0.999 |
| KSDVVYTDWKK [ORM1_Y175] | inactive: 0.8 | inactive: 0.842 | inactive: 0.698 | inactive: 0.802 | inactive: 0.811 | inactive: 0.96 |
| KSDVMYTDWKK [ORM1_Y175_V174M] | inactive: 0.701 | inactive: 0.631 | inactive: 0.569 | inactive: 0.768 | inactive: 0.54 | inactive: 0.623 |
| KHGGNYVPAPK [OSCP1_Y237] | inactive: 1.18 | inactive: 1.08 | inactive: 1.26 | inactive: 1.31 | inactive: 1.24 | inactive: 1.07 |
| SECCKYKIDNP [OSMR_Y689] | inactive: 0.939 | inactive: 0.712 | inactive: 0.878 | inactive: 0.859 | inactive: 1.16 | inactive: 1.11 |
| ATAKGYEPDAS [OTC_Y223_P220A] | inactive: 0.605 | inactive: 0.432 | inactive: 0.545 | inactive: 0.388 | inactive: 0.837 | inactive: 0.543 |
| ATPKGYELDAS [OTC_Y223_P225L] | inactive: 0.525 | inactive: 0.848 | inactive: 0.825 | inactive: 0.481 | inactive: 0.717 | inactive: 0.831 |
| ATPKGYERDAS [OTC_Y223_P225R] | inactive: 0.534 | inactive: 0.567 | inactive: 0.464 | inactive: 0.534 | inactive: 0.499 | inactive: 0.488 |
| ATPKGYETDAS [OTC_Y223_P225T] | inactive: 0.45 | inactive: 0.378 | inactive: 0.485 | inactive: 0.462 | inactive: 0.536 | inactive: 0.705 |
| DDEVFYSPLSL [OTC_Y317_R320L] | inactive: 0.61 | inactive: 0.724 | inactive: 0.878 | inactive: 0.881 | inactive: 0.735 | inactive: 0.718 |
| SLLTDYSPQLQ [OTC_Y345] | inactive: 0.732 | inactive: 0.786 | inactive: 0.666 | inactive: 1.09 | inactive: 0.927 | inactive: 0.95 |
| SLLKDYSPQLQ [OTC_Y345_T343K] | inactive: 0.847 | inactive: 0.851 | inactive: 1.05 | inactive: 0.755 | inactive: 1.06 | inactive: 1.03 |
| REEIKYMLWLS [OTC_Y55_G50R] | inactive: 0.971 | inactive: 1 | inactive: 0.843 | inactive: 1.14 | inactive: 0.947 | inactive: 1.58 |
| GEEIKYTLWLS [OTC_Y55_M56T] | inactive: 0.61 | inactive: 0.989 | inactive: 0.88 | inactive: 0.722 | inactive: 0.795 | inactive: 1.4 |
| GEEIKYMLWLL [OTC_Y55_S60L] | inactive: 2.43 | inactive: 2.52 | inactive: 2.18 | inactive: 2.06 | inactive: 2.43 | inactive: 2.11 |
| GEEIKDMLWLS [OTC_Y55_Y55D] | inactive: 0.718 | inactive: 0.651 | inactive: 0.637 | inactive: 0.679 | inactive: 0.688 | inactive: 0.733 |

| Binder | enrichment score (SHP2 C-SH2 domain E139D) | enrichment score [1] | enrichment score (SHP2 N-SH2 domain L43F) | enrichment score (SHP2 N-SH2 domain T42A) | enrichment score (SHP2 N-SH2 domain T52S) | enrichment score [2] |
| --- | --- | --- | --- | --- | --- | --- |
| LRRFIYRPPDQ [OTOF_Y1231_R1236Q] | inactive: 0.187 | inactive: 0.294 | inactive: 0.375 | inactive: 0.325 | inactive: 0.367 | inactive: 0.258 |
| RAIELCNDKEK [OTULIN_Y244_Y244C] | inactive: 0.632 | inactive: 0.654 | inactive: 0.467 | inactive: 0.475 | inactive: 0.442 | inactive: 0.534 |
| SLFPGYNFRFA [P2RX7_Y291_YF] | inactive: 1.63 | inactive: 1.39 | inactive: 1.54 | inactive: 1.66 | inactive: 1.54 | inactive: 1.93 |
| GSTLSYFGLAA [P2RX7_Y343] | inactive: 0.995 | inactive: 0.919 | inactive: 1.04 | inactive: 0.733 | inactive: 1.09 | inactive: 0.925 |
| GSTLSYFGLAT [P2RX7_Y343_A348T] | inactive: 0.932 | inactive: 1.04 | inactive: 0.978 | inactive: 1.09 | inactive: 0.701 | inactive: 1.09 |
| ELTAKYLNFFQ [P3H4_Y181_YF] | inactive: 1.35 | inactive: 1.34 | inactive: 1.3 | inactive: 2.01 | inactive: 1.39 | inactive: 1.28 |
| HLTNQYMQRVA [PABPC4_Y382] | inactive: 0.777 | inactive: 0.844 | inactive: 0.967 | inactive: 0.603 | inactive: 0.727 | inactive: 0.838 |
| NGSKGYAYVHF [PABPC5_Y147] | inactive: 1.73 | active: 3.82 | active: 3.22 | active: 8.17 | active: 4.09 | inactive: 1.47 |
| NGSKAYAYVHF [PABPC5_Y147_G146A] | inactive: 2.7 | active: 4.65 | inactive: 2.97 | active: 6.47 | active: 3.84 | inactive: 1.33 |
| SKAYAYVHFDS [PABPC5_Y149_G146A] | inactive: 2.95 | active: 4.72 | active: 3.85 | active: 7.41 | active: 4.52 | inactive: 2.22 |
| FADIAYNFRHA [PAH_Y166_G171A_YF] | inactive: 0.984 | inactive: 1.12 | inactive: 1.1 | inactive: 1.34 | inactive: 1.24 | inactive: 1.14 |
| FADIAYNFRHR [PAH_Y166_G171R_YF] | inactive: 0.594 | inactive: 0.549 | inactive: 0.556 | inactive: 0.546 | inactive: 0.71 | inactive: 0.615 |
| FADIAYNYRQG [PAH_Y166_H170Q] | inactive: 0.99 | inactive: 0.85 | inactive: 1.06 | inactive: 0.847 | inactive: 0.919 | inactive: 0.95 |
| FADIAYNFRQG [PAH_Y166_H170Q_YF] | inactive: 0.91 | inactive: 0.811 | inactive: 0.949 | inactive: 0.909 | inactive: 0.891 | inactive: 1.02 |
| FADIAYNYRRG [PAH_Y166_H170R] | inactive: 0.811 | inactive: 0.53 | inactive: 0.621 | inactive: 0.526 | inactive: 0.551 | inactive: 0.582 |
| FADIAYIFRHG [PAH_Y166_N167I_YF] | inactive: 2.01 | inactive: 2.08 | inactive: 1.67 | inactive: 1.65 | inactive: 1.66 | inactive: 1.91 |
| FADIAYSFRHG [PAH_Y166_N167S_YF] | inactive: 1.01 | inactive: 0.882 | inactive: 0.965 | inactive: 1.01 | inactive: 1.03 | inactive: 0.886 |
| FADIAYNYHHG [PAH_Y166_R169H] | inactive: 0.965 | inactive: 0.738 | inactive: 0.854 | inactive: 0.677 | inactive: 0.722 | inactive: 0.929 |
